# Positions count from the first letter of the chain named. The list shows a part of the results.
# T1: RBFOX1 RRM (Homo sapiens, UniProt Q9NWB1 109-208)
# T1 sequence: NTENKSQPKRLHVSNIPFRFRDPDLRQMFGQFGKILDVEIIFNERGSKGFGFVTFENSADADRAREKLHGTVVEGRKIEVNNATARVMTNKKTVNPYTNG
# B1: GGGACUA (DNA:RNA)
# RNA: GGGAGACCGGAAUUCAGAUUGUCCGGGACUAUUAAAUCCCGUCGUAGCCACCA
# DNA 1: CAATCTGAATTCCGGTCTCCC
# DNA 2: TGGTGGCTACGACGGGATT
# B2: UUUGUGU (DNA:RNA)
# RNA: GGGAGACCGGAAUUCAGAUUGUCCUUUGUGUUUAAAUCCCGUCGUAGCCACCA
# DNA 1: CAATCTGAATTCCGGTCTCCC
# DNA 2: TGGTGGCTACGACGGGATT
# B3: GCUAGAA (DNA:RNA)
# RNA: B1 RNA with G26C, G27U, C29G, U30A
# DNA 1: CAATCTGAATTCCGGTCTCCC
# DNA 2: TGGTGGCTACGACGGGATT
# B4: UGUACUU (DNA:RNA)
# RNA: B1 RNA with G25U, G27U, A31U
# DNA 1: CAATCTGAATTCCGGTCTCCC
# DNA 2: TGGTGGCTACGACGGGATT
# B5: CUCUAAG (DNA:RNA)
# RNA: B2 RNA with U25C, U27C, G28U, U29A, G30A, U31G
# DNA 1: CAATCTGAATTCCGGTCTCCC
# DNA 2: TGGTGGCTACGACGGGATT
# B6: UCAGGUC (DNA:RNA)
# RNA: B2 RNA with U26C, U27A, U29G, G30U, U31C
# DNA 1: CAATCTGAATTCCGGTCTCCC
# DNA 2: TGGTGGCTACGACGGGATT
# B7: UGCAGUG (DNA:RNA)
# RNA: B1 RNA with G25U, G27C, C29G, A31G
# DNA 1: CAATCTGAATTCCGGTCTCCC
# DNA 2: TGGTGGCTACGACGGGATT
# B8: CUCGUUU (DNA:RNA)
# RNA: B2 RNA with U25C, U27C, G30U
# DNA 1: CAATCTGAATTCCGGTCTCCC
# DNA 2: TGGTGGCTACGACGGGATT
# B9: AGGUCAA (DNA:RNA)
# RNA: B1 RNA with G25A, A28U, U30A
# DNA 1: CAATCTGAATTCCGGTCTCCC
# DNA 2: TGGTGGCTACGACGGGATT
# B10: UCAGGCG (DNA:RNA)
# RNA: B2 RNA with U26C, U27A, U29G, G30C, U31G
# DNA 1: CAATCTGAATTCCGGTCTCCC
# DNA 2: TGGTGGCTACGACGGGATT
# B11: GUGCAUU (DNA:RNA)
# RNA: B1 RNA with G26U, A28C, C29A, A31U
# DNA 1: CAATCTGAATTCCGGTCTCCC
# DNA 2: TGGTGGCTACGACGGGATT
# B12: GGGGAGU (DNA:RNA)
# RNA: B1 RNA with A28G, C29A, U30G, A31U
# DNA 1: CAATCTGAATTCCGGTCTCCC
# DNA 2: TGGTGGCTACGACGGGATT
# B13: GAUUUCC (DNA:RNA)
# RNA: B2 RNA with U25G, U26A, G28U, G30C, U31C
# DNA 1: CAATCTGAATTCCGGTCTCCC
# DNA 2: TGGTGGCTACGACGGGATT
# B14: CUGGUGC (DNA:RNA)
# RNA: B2 RNA with U25C, U27G, U31C
# DNA 1: CAATCTGAATTCCGGTCTCCC
# DNA 2: TGGTGGCTACGACGGGATT
# B15: UGGUGAA (DNA:RNA)
# RNA: B1 RNA with G25U, A28U, C29G, U30A
# DNA 1: CAATCTGAATTCCGGTCTCCC
# DNA 2: TGGTGGCTACGACGGGATT
# B16: GGGCGCU (DNA:RNA)
# RNA: B1 RNA with A28C, C29G, U30C, A31U
# DNA 1: CAATCTGAATTCCGGTCTCCC
# DNA 2: TGGTGGCTACGACGGGATT
# B17: UGGCAGA (DNA:RNA)
# RNA: B1 RNA with G25U, A28C, C29A, U30G
# DNA 1: CAATCTGAATTCCGGTCTCCC
# DNA 2: TGGTGGCTACGACGGGATT
# B18: CUCAGUC (DNA:RNA)
# RNA: B1 RNA with G25C, G26U, G27C, C29G, A31C
# DNA 1: CAATCTGAATTCCGGTCTCCC
# DNA 2: TGGTGGCTACGACGGGATT
# B19: CCUCGAG (DNA:RNA)
# RNA: B2 RNA with U25C, U26C, G28C, U29G, G30A, U31G
# DNA 1: CAATCTGAATTCCGGTCTCCC
# DNA 2: TGGTGGCTACGACGGGATT
# B20: UGUGAGU (DNA:RNA)
# RNA: B2 RNA with U26G, U29A
# DNA 1: CAATCTGAATTCCGGTCTCCC
# DNA 2: TGGTGGCTACGACGGGATT
# B21: CUGUAGA (DNA:RNA)
# RNA: B1 RNA with G25C, G26U, A28U, C29A, U30G
# DNA 1: CAATCTGAATTCCGGTCTCCC
# DNA 2: TGGTGGCTACGACGGGATT
# B22: GCCCUGG (DNA:RNA)
# RNA: B2 RNA with U25G, U26C, U27C, G28C, U31G
# DNA 1: CAATCTGAATTCCGGTCTCCC
# DNA 2: TGGTGGCTACGACGGGATT
# B23: UCAGCUC (DNA:RNA)
# RNA: B1 RNA with G25U, G26C, G27A, A28G, A31C
# DNA 1: CAATCTGAATTCCGGTCTCCC
# DNA 2: TGGTGGCTACGACGGGATT
# B24: ACUUGUG (DNA:RNA)
# RNA: B1 RNA with G25A, G26C, G27U, A28U, C29G, A31G
# DNA 1: CAATCTGAATTCCGGTCTCCC
# DNA 2: TGGTGGCTACGACGGGATT
# B25: UAAGUUC (DNA:RNA)
# RNA: B2 RNA with U26A, U27A, G30U, U31C
# DNA 1: CAATCTGAATTCCGGTCTCCC
# DNA 2: TGGTGGCTACGACGGGATT
# B26: UCGCCAC (DNA:RNA)
# RNA: B1 RNA with G25U, G26C, A28C, U30A, A31C
# DNA 1: CAATCTGAATTCCGGTCTCCC
# DNA 2: TGGTGGCTACGACGGGATT
# B27: CUAUGUA (DNA:RNA)
# RNA: B1 RNA with G25C, G26U, G27A, A28U, C29G
# DNA 1: CAATCTGAATTCCGGTCTCCC
# DNA 2: TGGTGGCTACGACGGGATT
# B28: CAGGAAC (DNA:RNA)
# RNA: B1 RNA with G25C, G26A, A28G, C29A, U30A, A31C
# DNA 1: CAATCTGAATTCCGGTCTCCC
# DNA 2: TGGTGGCTACGACGGGATT
# B29: CUUGGUU (DNA:RNA)
# RNA: B2 RNA with U25C, U29G, G30U
# DNA 1: CAATCTGAATTCCGGTCTCCC
# DNA 2: TGGTGGCTACGACGGGATT
# B30: GGGGCUA (DNA:RNA)
# RNA: B1 RNA with A28G
# DNA 1: CAATCTGAATTCCGGTCTCCC
# DNA 2: TGGTGGCTACGACGGGATT
# B31: UUUCUGA (DNA:RNA)
# RNA: B2 RNA with G28C, U31A
# DNA 1: CAATCTGAATTCCGGTCTCCC
# DNA 2: TGGTGGCTACGACGGGATT
# Biological target: T1, RBFOX1 RRM
# Assay: EMSA; HiTS-Eq, 1 nM pool, 10 min; buffer printed only for the single-RNA assays: 10 mM Tris pH 7.5, 150 mM NaCl, 3.4 mM EDTA, 0.001% NP-40, 30 C
# Settings: tags: His6 N-terminal (pET28a); label: 5' 32P
# Method in brief: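 Purified wild-type or mutant RbFox RRM at increasing concentrations was equilibrated with 1 nM of 5′-radiolabelled RNA carrying 7 randomized nucleotides for 10 min in 50 µL. Unbound RNA was separated by 8% native PAGE and sequenced. Relative association constants came from read-count changes of each RNA species compared with the control reaction, normalised to the cognate motif.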
row,Binder,binding signal
1,B1,0.0294 KA relative to UGCAUGU
2,B2,0.0289 KA relative to UGCAUGU
3,B3,0.0212 KA relative to UGCAUGU
4,B4,0.0109 KA relative to UGCAUGU
5,B5,0.00696 KA relative to UGCAUGU
6,B6,0.0155 KA relative to UGCAUGU
7,B7,0.0254 KA relative to UGCAUGU
8,B8,0.0104 KA relative to UGCAUGU
9,B9,0.0074 KA relative to UGCAUGU
10,B10,0.0144 KA relative to UGCAUGU
11,B11,0.0263 KA relative to UGCAUGU
12,B12,0.0316 KA relative to UGCAUGU
13,B13,0.0219 KA relative to UGCAUGU
14,B14,0.0264 KA relative to UGCAUGU
15,B15,0.014 KA relative to UGCAUGU
16,B16,0.0216 KA relative to UGCAUGU

row,Binder,binding signal
1,B17,0.0265 KA relative to UGCAUGU
2,B18,0.00839 KA relative to UGCAUGU
3,B19,0.00815 KA relative to UGCAUGU
4,B20,0.0271 KA relative to UGCAUGU
5,B21,0.0127 KA relative to UGCAUGU
6,B22,0.0197 KA relative to UGCAUGU
7,B23,0.00672 KA relative to UGCAUGU
8,B24,0.0124 KA relative to UGCAUGU
9,B25,0.016 KA relative to UGCAUGU
10,B26,0.00696 KA relative to UGCAUGU
11,B27,0.00654 KA relative to UGCAUGU
12,B28,0.0173 KA relative to UGCAUGU
13,B29,0.0191 KA relative to UGCAUGU
14,B30,0.0305 KA relative to UGCAUGU
15,B31,0.0328 KA relative to UGCAUGU

# Reference: article PMC9911399, “Two distinct binding modes provide the RNA-binding protein RbFox with extraordinary sequence specificity”
